# Reference: the supplement of paper PMC8728848
# The list shows a part of the results.
# B1: FedF (Escherichia coli), Q47212 (protein)
# chain: MRLKYILIIPLLLISLSVFASTLQVDKSVSYDWINSSASSAQVTGTLLGTGKTNTTQMPALYTWQHQIYNVNFIPSSSGTLTCQAGTILVWKNGRETQYALECRVSIHHSSGSINESQWGQQSQVGFGTACGNKKCRFTGFEISLRIPPNAQTYPLSSGDLKGSFSLTNKEVNWSASIYVPAIAKSYRLDTSITLPDTVNLKQNQATPVYYTFSAPSVSNTITGIPNQNDMPSSNVKLTIGPIQSKTTALYVQPDATGSWYDLSKSITMTVVKSSMLNFKGINAKPGNVTLSVPIVFEIQ
# What was measured:
# Assay in all cases: glycan array binding signal (z-score within array); higher = stronger binding
# Conditions in all cases: glycan notation: IUPAC condensed, linker removed
# [1] = target: Fuc(a1-2)Gal
# How it was run: (§1)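 Glycan array data were curated from 3228 arrays in the Consortium for Functional Glycomics database and kept only where the protein sequence was available. Glycan names were converted to IUPAC-condensed notation, and columns mapping to the same glycan were averaged. The binding signal is a within-array Z-score, averaged across arrays of the same protein sequence at different concentrations or buffers and across linkers. Negative Z-scores can be read as non-binding.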
# [2] = target: Fuc(a1-2)Gal(b1-3)GalNAc
# How it was run: as §1
# [3] = target: Fuc(a1-2)Gal(b1-3)GalNAc(a1-3)[Fuc(a1-2)]Gal(b1-4)Glc
# How it was run: as §1
# [4] = target: Fuc(a1-2)Gal(b1-3)GalNAc(a1-3)[Fuc(a1-2)]Gal(b1-4)GlcNAc
# How it was run: as §1
# [5] = target: Fuc(a1-2)Gal(b1-3)GalNAc(b1-3)Gal
# How it was run: as §1
# [6] = target: Fuc(a1-2)Gal(b1-3)GalNAc(b1-3)Gal(a1-4)Gal(b1-4)Glc
# How it was run: as §1
# [7] = target: Fuc(a1-2)Gal(b1-3)GalNAc(b1-4)[Neu5Ac(a2-3)]Gal(b1-4)Glc
# How it was run: as §1
# [8] = target: Fuc(a1-2)Gal(b1-3)GlcNAc
# How it was run: as §1
# [9] = target: Fuc(a1-2)Gal(b1-3)GlcNAc(b1-2)Man(a1-3)[Fuc(a1-2)Gal(b1-3)GlcNAc(b1-2)Man(a1-6)]Man(b1-4)GlcNAc(b1-4)GlcNAc
# How it was run: as §1
# [10] = target: Fuc(a1-2)Gal(b1-3)GlcNAc(b1-2)Man(a1-3)[Fuc(a1-2)Gal(b1-3)GlcNAc(b1-2)Man(a1-6)]Man(b1-4)GlcNAc(b1-4)[Fuc(a1-6)]GlcNAc
# How it was run: as §1
# [11] = target: Fuc(a1-2)Gal(b1-3)GlcNAc(b1-3)Gal(b1-4)Glc
# How it was run: as §1
# [12] = target: Fuc(a1-2)Gal(b1-3)GlcNAc(b1-3)GalNAc
# How it was run: as §1
# [13] = target: Fuc(a1-2)Gal(b1-3)GlcNAc(b1-3)[Fuc(a1-3)[Gal(b1-4)]GlcNAc(b1-6)]Gal(b1-4)Glc
# How it was run: as §1
# [14] = target: Fuc(a1-2)Gal(b1-3)GlcNAc(b1-3)[Gal(b1-4)GlcNAc(b1-6)]Gal(b1-4)Glc
# How it was run: as §1
# [15] = target: Fuc(a1-2)Gal(b1-3)GlcNAc(b1-3)[Neu5Ac(a2-6)Gal(b1-4)GlcNAc(b1-6)]Gal(b1-4)Glc
# How it was run: as §1
# [16] = target: Fuc(a1-2)Gal(b1-3)[Fuc(a1-4)]GlcNAc
# How it was run: as §1
# [17] = target: Fuc(a1-2)Gal(b1-3)[Fuc(a1-4)]GlcNAc(b1-2)Man(a1-3)[Fuc(a1-2)Gal(b1-3)[Fuc(a1-4)]GlcNAc(b1-2)Man(a1-6)]Man(b1-4)GlcNAc(b1-4)GlcNAc
# How it was run: as §1
# [18] = target: Fuc(a1-2)Gal(b1-3)[Fuc(a1-4)]GlcNAc(b1-3)[Fuc(a1-3)[Gal(b1-4)]GlcNAc(b1-6)]Gal(b1-4)Glc
# How it was run: as §1
# [19] = target: Fuc(a1-2)Gal(b1-3)[Fuc(a1-4)]GlcNAc(b1-3)[Gal(b1-4)GlcNAc(b1-6)]Gal(b1-4)Glc
# How it was run: as §1
# [20] = target: Fuc(a1-2)Gal(b1-4)Glc
# How it was run: as §1
# [21] = target: Fuc(a1-2)Gal(b1-4)Glc6S
# How it was run: as §1
# [22] = target: Fuc(a1-2)Gal(b1-4)GlcNAc
# How it was run: as §1
# [23] = target: Fuc(a1-2)Gal(b1-4)GlcNAc(b1-2)Man(a1-3)[Fuc(a1-2)Gal(b1-4)GlcNAc(b1-2)Man(a1-6)]Man(b1-4)GlcNAc(b1-4)GlcNAc
# How it was run: as §1
# [24] = target: Fuc(a1-2)Gal(b1-4)GlcNAc(b1-2)Man(a1-3)[Fuc(a1-2)Gal(b1-4)GlcNAc(b1-2)Man(a1-6)]Man(b1-4)GlcNAc(b1-4)[Fuc(a1-6)]GlcNAc
# How it was run: as §1
# [25] = target: Fuc(a1-2)Gal(b1-4)GlcNAc(b1-2)[Fuc(a1-2)Gal(b1-4)GlcNAc(b1-4)]Man(a1-3)[Fuc(a1-2)Gal(b1-4)GlcNAc(b1-2)Man(a1-6)]Man(b1-4)GlcNAc(b1-4)GlcNAc
# How it was run: as §1
# [26] = target: Fuc(a1-2)Gal(b1-4)GlcNAc(b1-3)Gal(b1-4)GlcNAc
# How it was run: as §1
# [27] = target: Fuc(a1-2)Gal(b1-4)GlcNAc(b1-3)Gal(b1-4)GlcNAc(b1-3)Gal(b1-4)GlcNAc
# How it was run: as §1
# [28] = target: Fuc(a1-2)Gal(b1-4)GlcNAc(b1-3)GalNAc
# How it was run: as §1
# [29] = target: Fuc(a1-2)Gal(b1-4)GlcNAc(b1-3)[Fuc(a1-2)Gal(b1-4)GlcNAc(b1-6)]GalNAc
# How it was run: as §1
# [30] = target: Fuc(a1-2)Gal(b1-4)GlcNAc6S
# How it was run: as §1
binder,measurement,setting,value
B1,glycan array binding signal (z-score),[1],-0.243
same,glycan array binding signal (z-score),[2],-0.259
same,glycan array binding signal (z-score),[3],-0.135
same,glycan array binding signal (z-score),[4],-0.195
same,glycan array binding signal (z-score),[5],0.555
same,glycan array binding signal (z-score),[6],-0.223
same,glycan array binding signal (z-score),[7],-0.129
same,glycan array binding signal (z-score),[8],-0.376
same,glycan array binding signal (z-score),[9],-0.179
same,glycan array binding signal (z-score),[10],-0.174
same,glycan array binding signal (z-score),[11],-0.21
same,glycan array binding signal (z-score),[12],0.118
same,glycan array binding signal (z-score),[13],-0.186
same,glycan array binding signal (z-score),[14],-0.157
same,glycan array binding signal (z-score),[15],-0.171
same,glycan array binding signal (z-score),[16],-0.383
same,glycan array binding signal (z-score),[17],0.147
same,glycan array binding signal (z-score),[18],-0.148
same,glycan array binding signal (z-score),[19],-0.152
same,glycan array binding signal (z-score),[20],-0.326
same,glycan array binding signal (z-score),[21],-0.123
same,glycan array binding signal (z-score),[22],-0.316
same,glycan array binding signal (z-score),[23],-0.189
same,glycan array binding signal (z-score),[24],-0.126
same,glycan array binding signal (z-score),[25],0.106
same,glycan array binding signal (z-score),[26],-0.446
same,glycan array binding signal (z-score),[27],0.368
same,glycan array binding signal (z-score),[28],-0.081
same,glycan array binding signal (z-score),[29],-0.078
same,glycan array binding signal (z-score),[30],-0.202
